# Publication PMC12820563, “FoxP3 forms a head-to-head dimer in vivo and stabilizes its multimerization on adjacent microsatellites”
# The other results are listed elsewhere or left out.
# Molecular target: T1, MBP-FoxP1dN (Mus musculus, UniProt P58462 326-579)
# T1 sequence: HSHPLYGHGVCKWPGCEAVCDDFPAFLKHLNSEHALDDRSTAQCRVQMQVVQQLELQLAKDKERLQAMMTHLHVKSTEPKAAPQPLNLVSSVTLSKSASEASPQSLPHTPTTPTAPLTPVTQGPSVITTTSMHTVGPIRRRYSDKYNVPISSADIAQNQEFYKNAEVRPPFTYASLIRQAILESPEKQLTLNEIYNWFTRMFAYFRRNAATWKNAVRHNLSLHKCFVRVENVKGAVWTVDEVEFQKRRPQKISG
# Test: PD-seq (MBP pull-down with sequencing); 20 mM Tris-HCl pH 7.5, 100 mM NaCl, 1.5 mM MgCl2, 0.4 uM protein, 0.1 uM dsDNA library, 30 min, room temperature, amylose pull-down; high values mean tight binding
# Details: protein: recombinant; tags: His6-MBP; chain copies: 2; dsDNA, one strand shown
# Method in brief: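 Binding is reads-per-million enrichment of pull-down over input, with replicates pooled. It comes from 30 min room-temperature incubation in Tris pH 7.5 buffer with NaCl and MgCl2 of 0.4 µM His6-MBP-tagged, N-terminally truncated mouse FoxP3 or FoxP1 fragment from E. coli with 0.1 µM Klenow-filled degenerate double-stranded DNA library, followed by amylose resin capture, three washes and Illumina sequencing of the released DNA.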
row,Sequence,binding signal
1,GATGATTGTTCTCCCAGCTGATGAATTGACCGTATCGAGTAAACAAATTTTCCTAATCTTTCTGTTCAAGCGCCATCTAC,0.983 RPM ratio (pull-down/input)
2,GATGATTGTTCTCCCAGCTGATGAATTGTAGGGCTCGAGTAAACAAATTTTCCTAATCTTTCTGTTCAAGCGCCATCTAC,0.867 RPM ratio (pull-down/input)
3,GATGATTGTTCTCCCAGCTGATGAATTAGCTGATTCGAGTAAACAAATTTTCCTAATCTTTCTGTTCAAGCGCCATCTAC,0.855 RPM ratio (pull-down/input)
4,GATGATTGTTCTCCCAGCTGATGAATTTTGCGCATCGAGTAAACAAATTTTCCTAATCTTTCTGTTCAAGCGCCATCTAC,1.28 RPM ratio (pull-down/input)
5,GATGATTGTTCTCCCAGCTGATGAATTTACAGCATCGAGTAAACAAATTTTCCTAATCTTTCTGTTCAAGCGCCATCTAC,1.29 RPM ratio (pull-down/input)
6,GATGATTGTTCTCCCAGCTGATGAATTCAGCGAGTCGAGTAAACAAATTTTCCTAATCTTTCTGTTCAAGCGCCATCTAC,0.816 RPM ratio (pull-down/input)
7,GATGATTGTTCTCCCAGCTGATGAATTACGCGATTCGAGTAAACAAATTTTCCTAATCTTTCTGTTCAAGCGCCATCTAC,1.07 RPM ratio (pull-down/input)
8,GATGATTGTTCTCCCAGCTGATGAATTTCTCCCGTCGAGTAAACAAATTTTCCTAATCTTTCTGTTCAAGCGCCATCTAC,0.902 RPM ratio (pull-down/input)
9,GATGATTGTTCTCCCAGCTGATGAATTCAAAGTTTCGAGTAAACAAATTTTCCTAATCTTTCTGTTCAAGCGCCATCTAC,0.878 RPM ratio (pull-down/input)
10,GATGATTGTTCTCCCAGCTGATGAATTTCAAATCTCGAGTAAACAAATTTTCCTAATCTTTCTGTTCAAGCGCCATCTAC,0.766 RPM ratio (pull-down/input)
11,GATGATTGTTCTCCCAGCTGATGAATTCTAGTGGTCGAGTAAACAAATTTTCCTAATCTTTCTGTTCAAGCGCCATCTAC,0.86 RPM ratio (pull-down/input)
12,GATGATTGTTCTCCCAGCTGATGAATTAAGTTTGTCGAGTAAACAAATTTTCCTAATCTTTCTGTTCAAGCGCCATCTAC,1.37 RPM ratio (pull-down/input)
13,GATGATTGTTCTCCCAGCTGATGAATTCTATATTTCGAGTAAACAAATTTTCCTAATCTTTCTGTTCAAGCGCCATCTAC,1.09 RPM ratio (pull-down/input)
14,GATGATTGTTCTCCCAGCTGATGAATTGCCGCCTTCGAGTAAACAAATTTTCCTAATCTTTCTGTTCAAGCGCCATCTAC,0.995 RPM ratio (pull-down/input)
15,GATGATTGTTCTCCCAGCTGATGAATTCCTCAAGTCGAGTAAACAAATTTTCCTAATCTTTCTGTTCAAGCGCCATCTAC,0.819 RPM ratio (pull-down/input)
16,GATGATTGTTCTCCCAGCTGATGAATTAGCTAAATCGAGTAAACAAATTTTCCTAATCTTTCTGTTCAAGCGCCATCTAC,1.06 RPM ratio (pull-down/input)

row,Sequence,binding signal
1,GATGATTGTTCTCCCAGCTGATGAATTGCGACCCTCGAGTAAACAAATTTTCCTAATCTTTCTGTTCAAGCGCCATCTAC,1.01 RPM ratio (pull-down/input)
2,GATGATTGTTCTCCCAGCTGATGAATTGCTAATGTCGAGTAAACAAATTTTCCTAATCTTTCTGTTCAAGCGCCATCTAC,1.3 RPM ratio (pull-down/input)
3,GATGATTGTTCTCCCAGCTGATGAATTGGGAATATCGAGTAAACAAATTTTCCTAATCTTTCTGTTCAAGCGCCATCTAC,1.01 RPM ratio (pull-down/input)
4,GATGATTGTTCTCCCAGCTGATGAATTCAGCCTCTCGAGTAAACAAATTTTCCTAATCTTTCTGTTCAAGCGCCATCTAC,0.878 RPM ratio (pull-down/input)
5,GATGATTGTTCTCCCAGCTGATGAATTAACTATTTCGAGTAAACAAATTTTCCTAATCTTTCTGTTCAAGCGCCATCTAC,0.947 RPM ratio (pull-down/input)
6,GATGATTGTTCTCCCAGCTGATGAATTATTTTAGTCGAGTAAACAAATTTTCCTAATCTTTCTGTTCAAGCGCCATCTAC,1.21 RPM ratio (pull-down/input)
7,GATGATTGTTCTCCCAGCTGATGAATTTGCCGATTCGAGTAAACAAATTTTCCTAATCTTTCTGTTCAAGCGCCATCTAC,0.855 RPM ratio (pull-down/input)
8,GATGATTGTTCTCCCAGCTGATGAATTTGCCTTTTCGAGTAAACAAATTTTCCTAATCTTTCTGTTCAAGCGCCATCTAC,1.14 RPM ratio (pull-down/input)
9,GATGATTGTTCTCCCAGCTGATGAATTCTCGGTTTCGAGTAAACAAATTTTCCTAATCTTTCTGTTCAAGCGCCATCTAC,0.833 RPM ratio (pull-down/input)
10,GATGATTGTTCTCCCAGCTGATGAATTGAGCTGTTCGAGTAAACAAATTTTCCTAATCTTTCTGTTCAAGCGCCATCTAC,0.884 RPM ratio (pull-down/input)
11,GATGATTGTTCTCCCAGCTGATGAATTTGTCTATTCGAGTAAACAAATTTTCCTAATCTTTCTGTTCAAGCGCCATCTAC,1.28 RPM ratio (pull-down/input)
12,GATGATTGTTCTCCCAGCTGATGAATTTAAACAATCGAGTAAACAAATTTTCCTAATCTTTCTGTTCAAGCGCCATCTAC,1.66 RPM ratio (pull-down/input)
13,GATGATTGTTCTCCCAGCTGATGAATTAGTACATTCGAGTAAACAAATTTTCCTAATCTTTCTGTTCAAGCGCCATCTAC,1.16 RPM ratio (pull-down/input)
14,GATGATTGTTCTCCCAGCTGATGAATTTAGCGGGTCGAGTAAACAAATTTTCCTAATCTTTCTGTTCAAGCGCCATCTAC,0.81 RPM ratio (pull-down/input)
15,GATGATTGTTCTCCCAGCTGATGAATTCTAGTCTTCGAGTAAACAAATTTTCCTAATCTTTCTGTTCAAGCGCCATCTAC,0.776 RPM ratio (pull-down/input)
16,GATGATTGTTCTCCCAGCTGATGAATTTTGTACGTCGAGTAAACAAATTTTCCTAATCTTTCTGTTCAAGCGCCATCTAC,1.04 RPM ratio (pull-down/input)
